# The list shows a part of the results, in another mix than the full data. Effects have a minus sign here.
# Target: human ether-à-go-go-related gene (hERG) potassium channel (human, UniProt Q12809)
# Experiment: primary screen, population patch clamp on CHO cells stably expressing hERG; higher = less effect of the substance
# Method: Briefly, Chinese hamster ovary (CHO) cells stably expressing the hERG channel were dislodged from tissue culture flasks and dispensed into PPC plates. […] During the recording, background leak currents were estimated by a 100 ms step to -80 mV from an initial holding potential of -70 mV and subtracted from the subsequent current measurement. The campaign was conducted in two phases using slight differences in recording protocol. In the first phase, the initial voltage pulse used a 100 ms step to -30 mV from a holding potential of -70 mV, a 2 s conditioning step to +25 mV, and a 2 s test step to -30 mV. During the second phase of the screen, the potential during the conditioning step was raised to +45 mV. In both phases of the campaign, a secondary voltage pulse was applied using the same parameters as the second phase initial pulse. The initial and secondary pulses were applied in the absence of compound, and upon application of 1 μM and 10 μM test concentrations. […]
# 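Further: peak tail current of the secondary pulse compared with the same well before compound.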
row,Structure (SMILES),"hERG current change (%, negative = inhibition) at 10uM [%]"
1,Cc1ccccc1C(OCCN(C)C)c1ccccc1.O=C(O)CC(O)(CC(=O)O)C(=O)O (stereo not shown),-44.4
2,CNCC[C@H](Oc1ccc(C(F)(F)F)cc1)c1ccccc1.Cl,-25
3,Br.CN1[C@@H]2CC[C@H]1CC(OC(=O)C(O)c1ccccc1)C2 (stereo partly shown),3.45
4,CN[C@H]1CCc2cc(OC)c(OC)c(OC)c2-c2ccc(OC)c(=O)cc21,4.15

# Source: paper PMC4336329 (PLoS ONE, 2015)
